Laboratory results reported in article PMC4336329 (PLoS ONE, 2015).
In all, about 310,000 compounds went through this assay and about 2,200 (0.71%) showed an effect of 50% or more. The effect is printed as a negative number. Some of the results follow.

biological target: human ether-à-go-go-related gene (hERG) potassium channel (human, UniProt Q12809); assay: primary screen, population patch clamp on CHO cells stably expressing hERG
Sequence (Q12809 whole entry, looked up): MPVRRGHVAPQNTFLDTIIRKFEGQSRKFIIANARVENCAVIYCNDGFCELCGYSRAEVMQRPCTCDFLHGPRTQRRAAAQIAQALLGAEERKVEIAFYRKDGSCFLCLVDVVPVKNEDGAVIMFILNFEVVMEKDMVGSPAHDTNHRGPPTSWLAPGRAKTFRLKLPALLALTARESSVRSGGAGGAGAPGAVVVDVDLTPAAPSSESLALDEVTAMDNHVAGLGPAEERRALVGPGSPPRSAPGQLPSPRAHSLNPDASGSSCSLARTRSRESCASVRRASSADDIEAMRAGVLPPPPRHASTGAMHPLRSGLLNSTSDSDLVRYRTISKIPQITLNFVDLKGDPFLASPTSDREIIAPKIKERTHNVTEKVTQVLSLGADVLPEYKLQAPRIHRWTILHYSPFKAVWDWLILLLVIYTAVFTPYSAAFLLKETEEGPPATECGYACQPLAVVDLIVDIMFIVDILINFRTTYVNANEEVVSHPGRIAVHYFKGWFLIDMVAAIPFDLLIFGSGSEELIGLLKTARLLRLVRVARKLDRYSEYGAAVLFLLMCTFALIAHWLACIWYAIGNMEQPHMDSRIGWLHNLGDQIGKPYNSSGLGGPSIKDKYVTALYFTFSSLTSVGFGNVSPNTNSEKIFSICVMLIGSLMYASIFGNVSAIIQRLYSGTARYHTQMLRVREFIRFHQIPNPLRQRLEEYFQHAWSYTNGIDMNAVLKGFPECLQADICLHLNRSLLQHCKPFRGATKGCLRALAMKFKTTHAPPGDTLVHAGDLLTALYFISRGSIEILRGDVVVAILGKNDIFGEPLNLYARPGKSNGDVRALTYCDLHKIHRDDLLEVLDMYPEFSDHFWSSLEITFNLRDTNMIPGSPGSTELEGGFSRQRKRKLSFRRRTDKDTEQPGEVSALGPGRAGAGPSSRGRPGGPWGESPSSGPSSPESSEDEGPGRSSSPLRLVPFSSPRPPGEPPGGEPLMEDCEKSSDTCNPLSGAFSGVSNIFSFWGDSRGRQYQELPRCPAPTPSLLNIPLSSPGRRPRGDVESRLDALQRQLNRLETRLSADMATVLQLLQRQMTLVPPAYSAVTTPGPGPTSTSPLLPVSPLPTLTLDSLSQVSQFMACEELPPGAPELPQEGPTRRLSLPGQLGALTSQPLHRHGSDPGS

Row | SMILES | hERG current change (%, negative = inhibition) at 1uM [%]
1 | Cc1cc(C(=O)N2CCCC(N3CCN(c4cccc(Cl)c4)CC3)C2)nn1C (stereo not shown) | -3.76
2 | O=C(Nc1ccc2c3c(cccc13)CC2)c1ccco1 | 0.275
3 | Cc1ccc2c(Cl)c(C(=O)Nc3cc(C)on3)sc2c1 | 9.53
4 | CCCCNC(=O)CSc1nc2ccccc2c(=O)n1C1CCCC1 | -3.19
5 | COC(=O)c1nc(NC(=S)NC(=O)c2cccs2)sc1C | 14.7
6 | CCn1nc(NC(=O)C(C)C)c2cc3cccc(C)c3nc21 | 15.9
7 | CC(=O)N1CN(C2CC(C)(C)NC(C)(C)C2)Cc2c1sc1c2CCCC1 | 14.2
8 | S=C(c1ccc(-c2ccc(Br)cc2)o1)N1CCOCC1 | 7.21
9 | O=C1CCCCN1CCc1c[nH]c2ccccc12 | 12
10 | O=C(CCc1ccccc1)N=C1SC2CS(=O)(=O)CC2N1c1ccc(F)cc1 (stereo not shown) | 5.22
11 | CC(=O)Nc1ccc(NCc2ccc(C)s2)cc1 | 2.48
12 | COc1ccccc1NC(=O)CSc1nnc(NC(=O)C2CCC2)s1 | 14.8
13 | Cc1ccc(OCC(=O)NCC(=O)Nc2ccc(F)cc2)c([N+](=O)[O-])n1 | -18.1
14 | CCc1ccccc1NC(=O)CCc1c(C)nc(SC)nc1C | 15.5
15 | O=C(NCc1ccccc1Cl)C(=O)c1cn(CC(=O)N2CCOCC2)c2ccccc12 | 13.1
16 | O=C(CCCCCl)Nc1c2c(nc3ccccc13)CCC2 | 2.02
17 | CC(N=C(NC#N)Nc1ccncc1)C(C)(C)C (stereo not shown) | -0.576
18 | COc1ccc(CCNc2nc(-c3ccccn3)cs2)cc1OC | 17.7
19 | Cc1cc([N+](=O)[O-])c2c(c1C)C1C=CCC1C(c1ccccn1)N2 (stereo not shown) | 17.4
20 | CCCCN1C(C(=O)Nc2ncccn2)=C(O)c2ccccc2S1(=O)=O | 11.6

Row | SMILES | hERG current change (%, negative = inhibition) at 1uM [%]
21 | CCn1c(CNC(=O)c2ccco2)nnc1SCC(=O)Nc1ccccc1Cl | 9.73
22 | COC(=O)C1=C(NC(=O)c2ccc(C)c(C)c2)CCS1 | 23.7
23 | CC1(C)SC(=S)N(/N=C/c2cccnc2)C1N(O)C(=O)NC1CCCCC1 (stereo not shown) | 11.3
24 | CCOC(=O)c1ccc(-c2ccc(CO)o2)cc1 | 8.15
25 | Cc1cc(C)n(-c2ccc(C(=O)Oc3ccc4c(c3)OCO4)cc2)n1 | 6.44
26 | COc1ccc(CC(=O)Nc2cccc(S(=O)(=O)N3CCCCCC3)c2)cc1OC | 6.49
27 | CC(=O)Nc1sc2c(c1C(=O)N1CCOCC1)CCCCC2 | 14.4
28 | CC1=NN(C(=O)c2ccccc2Cl)C(O)(c2ccccc2)C1 (stereo not shown) | 14
29 | Cc1noc(/C=C/c2cccs2)c1S(=O)(=O)N1CCC(C(=O)NCCCN2CCCC(C)C2)CC1 (stereo not shown) | 7.57
30 | Cc1ccc(C(=O)C2CCN(C(=S)NCCCOC(C)C)CC2)cc1 | 10.3
31 | CCOC(=O)/C(=N\O)C1=NC(C)(C)Cc2ccccc21 | 11.2
32 | COc1ccccc1C(=O)NC(=O)CSc1nncn1C(C)C | 3.88
33 | COc1ccccc1-n1c(=O)c(C#N)c(-c2ccc([N+](=O)[O-])cc2)c2cc(C(=O)c3cc(F)ccc3O)cnc21 | 10.6
34 | COC(=O)c1cc(COC(=O)c2ccc3ccccc3n2)oc1C | 13.4
35 | CCOC(=O)c1c(NC(=O)COC(=O)c2nccnc2N)sc(C(=O)N(C)C)c1C | 11.8
36 | O=C(OCc1ccc(Cl)cc1Cl)c1ccncc1 | 3.9
37 | C=CCSc1nc(N2CCOCC2)c2c(c1C#N)CC(C)(C)N(C)C2 | 9.38
38 | CCOc1cc(/C=N/n2cnnc2)ccc1OS(=O)(=O)c1ccc(C)cc1 | -10.7
39 | O=C(CSc1ccc(F)cc1)Nc1nnc(-c2ccco2)o1 | 14.3
40 | Cc1cc(C)c(CN2CCC(N3CCC(C(=O)NCC4CCCO4)CC3)CC2)cc1C (stereo not shown) | 5.86

Row | SMILES | hERG current change (%, negative = inhibition) at 1uM [%]
41 | CCCN(C(=O)c1cccc(S(=O)(=O)N2CCN(C)CC2)c1)c1c(N)n(Cc2ccccc2)c(=O)[nH]c1=O | 7.09
42 | O=C(C1CCN(S(=O)(=O)c2cnc[nH]2)CC1)N1CCn2c1nc1ccccc12 | 0.843
43 | COc1ccc(-c2nsc(C(=O)N(c3ccc(F)cc3)C(C(=O)NC3CCCC3)c3ccc(OC)cc3)c2N)cc1 (stereo not shown) | 8.11
44 | Cc1ccc(NC(=O)c2c(-c3ccccc3)noc2C)nc1 | 13.6
45 | COc1cc(C2NC(=S)NC(C)=C2C(=O)OC(C)C)ccc1OC(C)C (stereo not shown) | 5.19
46 | Cc1nn(C)c(C)c1/C=N/O | 14.8
47 | COC(=O)c1cccc(-n2sc3ccccc3c2=O)c1 | 18.1
48 | Cc1ccc(S(=O)(=O)N2CCC(=O)N(C(COCc3cccc(Cl)c3)C(C)C)CC2)cc1 (stereo not shown) | -6.86
49 | O=C(CSC1=Nc2ccccc2C2=NC(CC(=O)NC3CCCCC3)C(=O)N12)NCc1ccco1 (stereo not shown) | 11.6
50 | COc1ccc(S(=O)(=O)NCCc2ccncc2)cc1 | 16.9
51 | CN(C(=O)COC(=O)c1ccc(F)c(S(=O)(=O)N2CCOCC2)c1)C1CCS(=O)(=O)C1 (stereo not shown) | 3.56
52 | O=C(CN1C(=O)COCC1=O)N1CCOCC1 | 8.13
53 | COc1cc(CN2CCN(c3ncccn3)CC2)cc(OC)c1 | 8.24
54 | COc1ccc(C2=C(C=O)Cc3ccccc3O2)cc1 | -2.74
55 | CC(=O)n1cc(C2C(=O)CCCC2=O)c2ccccc21 | -1.08
56 | Cc1nc(N=C(N)N)nc2c(C)cccc12 | 11.4
57 | O=C(O)c1ccc(-n2ncc3c2/C(=C/c2cccc([N+](=O)[O-])c2)CC3)cc1 | 16.9
58 | C#CCCc1cocc1/C=[N+](\[O-])c1ccc(C(=O)OCC)cc1 | 6.61
